The values that follow come from article PMC4336329 (PLoS ONE, 2015).

The structures appear in SMILES notation. Screen size: about 310,000 compounds; about 14,000 (4.5%) showed an effect of 50% or more. The effect is printed as a negative number. This is one part of the list.
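Further: peak tail current of the secondary pulse compared with the same well before compound.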

Sequence of human ether-à-go-go-related gene (hERG) potassium channel (Q12809 whole entry, looked up): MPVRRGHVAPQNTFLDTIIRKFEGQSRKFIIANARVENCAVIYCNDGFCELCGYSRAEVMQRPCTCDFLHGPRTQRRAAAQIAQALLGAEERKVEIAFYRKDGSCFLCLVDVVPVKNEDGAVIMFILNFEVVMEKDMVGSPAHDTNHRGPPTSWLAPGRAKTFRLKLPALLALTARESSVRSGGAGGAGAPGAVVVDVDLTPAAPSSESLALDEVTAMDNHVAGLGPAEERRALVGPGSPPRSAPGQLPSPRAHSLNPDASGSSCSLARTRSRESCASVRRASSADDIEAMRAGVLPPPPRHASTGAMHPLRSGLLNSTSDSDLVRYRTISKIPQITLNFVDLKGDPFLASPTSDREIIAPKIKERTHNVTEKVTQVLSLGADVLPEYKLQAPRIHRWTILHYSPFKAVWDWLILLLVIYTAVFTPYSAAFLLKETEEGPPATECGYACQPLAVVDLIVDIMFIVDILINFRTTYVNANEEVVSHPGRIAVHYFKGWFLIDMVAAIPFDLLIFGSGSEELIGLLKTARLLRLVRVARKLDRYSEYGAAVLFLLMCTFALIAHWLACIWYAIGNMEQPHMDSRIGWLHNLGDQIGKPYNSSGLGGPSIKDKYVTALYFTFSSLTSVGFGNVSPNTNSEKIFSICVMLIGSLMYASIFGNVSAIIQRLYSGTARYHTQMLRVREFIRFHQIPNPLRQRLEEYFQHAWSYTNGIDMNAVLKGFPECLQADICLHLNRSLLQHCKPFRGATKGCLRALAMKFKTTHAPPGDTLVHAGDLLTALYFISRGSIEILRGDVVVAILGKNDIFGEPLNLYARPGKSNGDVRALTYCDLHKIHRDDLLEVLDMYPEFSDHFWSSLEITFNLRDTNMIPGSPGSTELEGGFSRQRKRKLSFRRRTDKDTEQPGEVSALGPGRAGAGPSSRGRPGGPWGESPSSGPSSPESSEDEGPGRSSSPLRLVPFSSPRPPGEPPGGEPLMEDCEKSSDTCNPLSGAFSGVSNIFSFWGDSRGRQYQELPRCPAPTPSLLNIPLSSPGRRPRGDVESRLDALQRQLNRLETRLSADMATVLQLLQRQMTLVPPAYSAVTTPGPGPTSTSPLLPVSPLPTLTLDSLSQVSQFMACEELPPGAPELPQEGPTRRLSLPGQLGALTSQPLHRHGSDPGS

The experiment concerns the target human ether-à-go-go-related gene (hERG) potassium channel (human, UniProt Q12809). In words: primary screen, population patch clamp on CHO cells stably expressing hERG.
Regarding `O=C(NC(=S)Nc1ccc(Cl)c(C(=O)O)c1)c1ccco1`, the “hERG current change (%, negative = inhibition) at 10uM” value is -3.52%.
In the case of `CN(C)S(=O)(=O)c1ccc(C(=O)Nc2cccnc2)cc1` it was -22.2%; in that of `Cn1c(=O)[nH]c(=O)c2c1nc(SCCN1CCCCC1)n2Cc1ccccc1`, -78.9%; in that of `CCCCN(CCO)CCCC`, 14%.
`Fc1ccc(-n2cnnn2)c(F)c1`: the “hERG current change (%, negative = inhibition) at 10uM” value turned out to be 2.55%.
In the case of `O=C(O)Cc1sc(-c2ccc(Cl)cc2)nc1-c1ccccc1` it was 2.93%.
Then `N#Cc1ccc(CSc2nnc(-c3ccccn3)n2-c2ccc(Cl)cc2)cc1`, with -51.8%.
In the case of `Cc1ccc(N2CC(C(=O)Nc3ccc(S(=O)(=O)NCC4CCCO4)cc3)CC2=O)cc1` (stereo not drawn) it was 9.06%.
For `N#C/C(=C\c1cccnc1)C(=O)Nc1ccc(S(N)(=O)=O)cc1`, the “hERG current change (%, negative = inhibition) at 10uM” value turned out to be 5.43%.
In the case of `Cc1cc2nc3s/c(=C/c4ccc(-c5ccccc5C(=O)O)o4)c(=O)n3c2cc1C` it was 19.3%.
For `CN(Cc1cnn(C)c1)C(=O)C1CCC(=O)N(Cc2ccc(Cl)cc2)C1` (stereo not drawn), the “hERG current change (%, negative = inhibition) at 10uM” value is reported as -9.64%.
Turning to `N#C/C(=C\c1ccc(O)c(Br)c1)C(=O)N1CCCCC1`, the “hERG current change (%, negative = inhibition) at 10uM” value was determined as 5.9%.
In the case of `N#CCCCn1c(-c2ccccc2)noc1=O`, the “hERG current change (%, negative = inhibition) at 10uM” value is -7.09%.
As to `Cc1c(C(=O)N2CCOCC2)c(S(=O)(=O)Nc2ccc(F)cc2)c(C)n1C`, the “hERG current change (%, negative = inhibition) at 10uM” value is given as 15.5%.
In the case of `N#Cc1c(NC(=O)c2nc3ncccn3n2)sc2c1CCCCC2` it was 2.44%.
In the case of `O=C(Nc1cccc(/C=C/c2ccccn2)c1)c1ccc(-n2cncn2)c([N+](=O)[O-])c1` it was -24.9%.
In the case of `Cc1ccc(-c2nc(=O)[nH]c3ccccc23)cc1` it was -20%; in that of `COc1ccc(S(=O)(=O)N2CCOCC2)cc1NC(=O)[C@@H]1CCCN1C(=O)c1cccs1`, -12.8%; in that of `COc1ccnc(N=CNOCc2ccc(Cl)cc2)c1C#N`, 15.5%.
As for `Cc1cccc(CN2CCC(CNC(=O)C3CCCN(S(=O)(=O)c4cnc[nH]4)C3)CC2)c1` (stereo not drawn), the “hERG current change (%, negative = inhibition) at 10uM” value is -1.13%.
Then `Cc1ccc(N(C)S(=O)(=O)c2ccc(-c3cc(C)no3)s2)cc1`, with 8.09%.
Then `Cc1nc(-c2ccccc2)sc1-c1nc(-c2cccnc2)ncc1S(=O)(=O)c1ccccc1`, with -6.63%; and `COc1cccc2cc(C(C)N(CCCN3CCOCC3)C(=S)Nc3cc(C)cc(C)c3)oc12` (stereo not drawn), with 5.36%.
Regarding `Cc1nc(-c2cc(-c3nc(-c4ccc(C(F)(F)F)cc4)no3)no2)cs1`, the “hERG current change (%, negative = inhibition) at 10uM” value is -28.6%.
In the case of `Cc1ccc(O)c(C(CC(=O)NCc2ccco2)c2ccccc2)c1` (stereo not drawn) it was 1.71%; in that of `CC(=O)Oc1ccc(-c2nc3ccccc3c(=O)o2)cc1`, 8.78%.
In the case of `CC(=O)c1cc(-c2ccccc2)n(CCC(=O)NC(C)(C)C)c1C` it was 8.01%; in that of `COc1cccc(C2CC(c3c(-c4ccccc4)c4cc(Cl)ccc4[nH]c3=O)=NN2S(C)(=O)=O)c1OC` (stereo not drawn), 7.42%.
In the case of `CCCC1(c2ccccc2)NC(=O)N(CC(=O)NCc2ccc(OC)cc2)C1=O` (stereo not drawn) it was 3.18%; in that of `OCCCc1n[nH]c(=S)n1-c1ccccc1`, 8.54%.
Take `C=CCOc1c2ccc(C(=O)N(CC)c3ccc(OC)cc3)cc2nn1C`: the “hERG current change (%, negative = inhibition) at 10uM” value was found to be 14.1%.
As for `CCS(=O)(=O)N1CCCC(C(=O)NCCCOC)C1` (stereo not drawn), the “hERG current change (%, negative = inhibition) at 10uM” value is reported as 23.5%.
In the case of `Cc1c(C=O)c2ccccc2n1Cc1ccc(F)cc1` it was -43.1%; in that of `Cc1ccc(NS(=O)(=O)c2c(C)[nH]c(=O)[nH]c2=O)cc1C`, 2.52%; in that of `CCOc1ccsc1C(=O)OC`, 11.1%.
Take `O=C1c2cccc3cccc(c23)N1Cc1ccc(F)cc1`: the “hERG current change (%, negative = inhibition) at 10uM” value is recorded as -25.2%.
In the case of `Cc1nn(CCC(=O)NNC(=S)Nc2cccc(Cl)c2)c(C)c1[N+](=O)[O-]` it was 5.42%; in that of `CC1CCC(NC(=O)COC(=O)CSc2ccc(C(N)=O)cc2[N+](=O)[O-])CC1` (stereo not drawn), -2.16%; in that of `CC(C)(C)c1ccc(OCCNC(=O)c2ncn[nH]2)cc1`, -3.57%.
In the case of `O=C(Nc1ccc(N2CCOCC2)cc1)C1CCCN(S(=O)(=O)c2cccc(C(F)(F)F)c2)C1` (stereo not drawn) it was 15.5%; in that of `Cc1ccc(S(=O)(=O)Nc2cc(C(F)(F)F)ccc2N2CCOCC2)c(C)c1`, 4.38%.
In the case of `CC(C)Cc1nnc(NC(=O)c2cc(S(=O)(=O)N(C)C)ccc2N2CCCC2)s1` it was -22.6%.
Turning to `CCOC(=O)c1c(COC(=O)c2ccco2)nc2ccccc2[n+]1[O-]`, the “hERG current change (%, negative = inhibition) at 10uM” value is given as -16.6%.
Then `Cc1ccccc1SCC(=O)Nc1cc(C(F)(F)F)ccc1N1CCOCC1`, with -1.77%.
`Cc1ccc2cc(CN(C(=O)c3ccncc3)C(C)C)c(=O)[nH]c2c1`: the “hERG current change (%, negative = inhibition) at 10uM” value was -10.4%.
Take `CC(Cc1ccccn1)NC(=O)CCc1nnc(C2CCCCC2)o1` (stereo not drawn): the “hERG current change (%, negative = inhibition) at 10uM” value came out at 11.6%.
In the case of `Cc1oc(-c2ccccc2)cc1C(=O)Nc1cccc(/C=C\C(=O)O)c1` it was 17.1%; in that of `CCOc1cccc(CN2CCN(Cc3ccc(C)o3)C(CCO)C2)c1O` (stereo not drawn), -13.1%; in that of `CCOC(=O)C(C#N)c1ccccn1` (stereo not drawn), 14.1%.
Then `N=c1nc(N)nc2n1NC(c1ccc(F)cc1)=CS2`, with -24.1%; and `Cc1sc2ccccc2[n+]1CC(=O)c1ccccc1.[Br-]`, with 18.7%.
Turning to `CC(C)(C)c1cn(-c2ccc(F)cc2)c(=S)[nH]1`, the “hERG current change (%, negative = inhibition) at 10uM” value is listed as -4.59%.
In the case of `COC1=CC(=O)OC(/C=C/c2ccccc2)C1` (stereo not drawn) it was -1.02%; in that of `CCOc1ccc(CN(C(=O)c2oc3ccccc3c2C)C2CCS(=O)(=O)C2)cc1` (stereo not drawn), -24.8%.
In the case of `CC(=O)Oc1cc2cccc(OC(C)=O)c(=O)c2c(OC(C)=O)c1OC(C)=O` it was 1.34%; in that of `O=C(Nc1cccs1)OCCN1CCN(Cc2ccccc2)CCC1=O`, -9.26%; in that of `CCCCCCSc1ccc([C@H]2N[C@@](CC(C)C)(C(=O)OC)[C@H]3C(=O)N(C)C(=O)[C@@H]23)cc1.O=C(O)C(F)(F)F`, -3.24%.
